Source: PubChem BioAssay AID1645882 (National Center for Advancing Translational Sciences (NCATS), 2021)
Out of some 16,000 compounds screened, about 120 (0.75%) were called active. About 4% were inconclusive and are not listed. Calls come from the whole dose curve; as a rule, active = well fitted inhibition curve with a large enough effect; inconclusive = small, poorly fitted or top-dose-only effect; inactive = no such curve, though single readings can be large or run the other way. Some of the results follow.

biological target: Rap guanine nucleotide exchange factor 3 (Homo sapiens) (UniProt O95398); test: Validation qHTS for antagonist of cAMP-regulated guanine nucleotide exchange factor 3 (EPAC1); details: EPAC1 Rap1B-BODIPY-GDP exchange, fluorescence; series mostly up to 150 µM; activity change, negative = inhibition: at the top concentration;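 note: plate controls were DMSO for no effect and ATA control for full effect; nearly all actives have a fitted effect of over 75% in size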
Outline: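 Nucleotide exchange followed as fluorescence loss when BODIPY-GDP leaves Rap1B (480 nm excitation, 540 nm emission), read at 5 min intervals over 30 min. Reaction: 100 nM EPAC1, 250 nM RAP1B-BODIPY-GDP, 50 uM GDP; ATA and DMSO define normalization.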

Sequence of UniProt O95398 (O95398 whole entry, looked up): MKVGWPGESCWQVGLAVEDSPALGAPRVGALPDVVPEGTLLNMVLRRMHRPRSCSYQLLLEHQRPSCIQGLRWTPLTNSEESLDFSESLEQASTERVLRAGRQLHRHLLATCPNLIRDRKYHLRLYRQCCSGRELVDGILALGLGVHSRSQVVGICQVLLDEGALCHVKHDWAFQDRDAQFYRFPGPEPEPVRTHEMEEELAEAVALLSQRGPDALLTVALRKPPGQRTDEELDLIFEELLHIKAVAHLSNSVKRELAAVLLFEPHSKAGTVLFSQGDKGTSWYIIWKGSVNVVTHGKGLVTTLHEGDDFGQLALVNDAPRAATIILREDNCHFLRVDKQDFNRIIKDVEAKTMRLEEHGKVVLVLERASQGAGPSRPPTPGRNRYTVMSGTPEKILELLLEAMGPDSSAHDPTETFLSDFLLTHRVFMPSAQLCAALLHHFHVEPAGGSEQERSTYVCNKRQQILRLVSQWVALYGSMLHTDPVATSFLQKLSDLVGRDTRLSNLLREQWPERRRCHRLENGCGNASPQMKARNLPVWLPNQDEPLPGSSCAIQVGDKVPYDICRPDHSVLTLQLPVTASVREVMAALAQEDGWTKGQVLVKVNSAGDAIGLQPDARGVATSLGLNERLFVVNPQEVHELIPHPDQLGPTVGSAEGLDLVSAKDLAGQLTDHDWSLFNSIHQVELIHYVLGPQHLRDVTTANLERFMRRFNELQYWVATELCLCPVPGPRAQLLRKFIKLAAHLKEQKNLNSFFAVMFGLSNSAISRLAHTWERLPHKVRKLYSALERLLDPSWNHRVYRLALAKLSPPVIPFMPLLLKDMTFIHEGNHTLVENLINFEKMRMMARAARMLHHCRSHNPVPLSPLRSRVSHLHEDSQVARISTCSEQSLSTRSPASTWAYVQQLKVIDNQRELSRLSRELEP

Activity change, negative = inhibition, inactive:
Cc1nc2cnc(N3CCNCC3)nc2n(Cc2ccc(F)cc2)c1=O 19.8%
O=C(Nc1ccc2c(c1)OCO2)O[C@@H]1C[C@H]2CCC(=O)N3CC[C@@H](C1)[C@@H]23 9.98%
COc1cc(OC)cc(C(=O)NCC2Cc3cccc(-c4nc(C)cnc4C)c3O2)c1 (stereo not given) 10.1%
COc1cc(=O)n2c(c1C(=O)NC(C)c1ccco1)CCN(Cc1ccccc1Cl)CC2 (stereo not given) 1.82%
CS(=O)(=O)N1CCC2(CC1)CN(Cc1nccs1)C2 9.26%
NCCNc1cccc2ccccc12 3.57%
CNCCCC12CCC(c3ccccc31)c1ccccc12
C/C=C/c1ccc(OC(C)[C@@H](O)c2ccc(O)c(OC)c2)c(OC)c1 (stereo not given in full) 1.75%
Cc1cccc(CNc2ncncc2-c2cccc(NS(C)(=O)=O)c2)c1 -2.05%
Cc1ccccc1CN1CCc2nnc(C(C)NC(=O)c3cc(F)ccc3F)n2CC1 (stereo not given) 7.65%
CC[C@H]1OC(=O)C[C@@H](O)[C@H](C)[C@@H](O[C@@H]2O[C@H](C)[C@@H](O)[C@H](N(C)C)[C@H]2O)[C@@H](CCN2C[C@H](C)C[C@H](C)C2)C[C@@H](C)C(=O)/C=C/C(C)=C/[C@@H]1CO[C@@H]1O[C@H](C)[C@@H](O)[C@@H](OC)[C@H]1OC 13.9%
O=C1Cc2c([nH]c3ccc(Br)cc23)-c2ccccc2N1
O=C(/C=C/c1ccccc1)c1cccs1 -5.39%
Cn1ncc(S(=O)(=O)Cc2ccccc2)c(Br)c1=O 20.7% [at 75.8 µM]
O=c1c(-c2ccccc2)nc2cnc(Oc3ccccc3)nc2n1C[C@H]1CCCO1 7.43%
Cc1nc2cc(NC(=O)[C@@H]3C[C@@H](Sc4ccccn4)CN3Cc3cccc(F)c3)ccc2s1 -8.1%
COc1ccccc1-c1ccc2ncnc(NC3CCNCC3)c2c1 9.31%
COc1ccc(CN2Cc3ccccc3OC(c3ccccc3OC)C2)cc1O (stereo not given) -10.4%
OC1(c2cccnc2)CCN(Cc2ccc3c(c2)CN(Cc2cccc(F)c2F)CCO3)CC1 13%
O=C(c1cccc(F)c1)N1CCC2(CC1)CCN(c1ccncc1)CC2 10.4%
COc1ccc2c(c1)c(CC(=O)N1CCOCC1)c(C)n2C(=O)c1ccc(Cl)cc1
CC(=O)N[C@@H](C(=O)O)C(C)(C)SN=O -0.696%
COc1cc(CN2CCC3(CCC(CNC(=O)c4ccco4)O3)CC2)ccc1O (stereo not given) 11%
COc1ccc2[nH]cc(CCNc3ncncc3-c3c(C)noc3C)c2c1 -4.56%
OC(c1cc(C(F)(F)F)nc2c(C(F)(F)F)cccc12)C1CCCCN1 (stereo not given) 9.85%
COc1cc(=O)n2c(c1C(=O)NCc1nonc1C)CCN(Cc1c[nH]c3ccccc13)CC2 14.4%
Cc1ccccc1-c1cc2c(c(OC3CCOC3)c1)OCCN(C(=O)Cn1cccn1)C2 (stereo not given) -13.3%
Fc1ccc(Nc2ncncc2-c2ccccc2C(F)(F)F)cc1 -6.63%
COC(=O)CC1C(C)(C)C2(O)OC34CC2C(=O)[C@@]1(C)C3CC[C@]1(C)C4=CC(=O)OC1c1ccoc1 (stereo not given in full) 2.14%
O=C(c1cccc(F)c1)N1CCC[C@@]2(CCN(c3ncccn3)C2)C1 8.38%
Cc1ccc(C(=O)Nc2cnn(-c3ccc(C(=O)NCc4nc(-c5ccccc5)n[nH]4)cc3)c2)c(C)c1 -0.808%
CCN1CCN(C(=O)NC(C(=O)NC2C(=O)N3C2SC(C)(C)C3C(=O)O)c2ccccc2)C(=O)C1=O (stereo not given) 14.2%
C[C@@H]1C[C@H]2[C@@H]3C[C@H](F)C4=CC(=O)C=C[C@]4(C)[C@@]3(Cl)[C@@H](O)C[C@]2(C)[C@H]1C(=O)COC(=O)C(C)(C)C 4.11%
CN(C)c1ncc2ncc(=O)n(C3CC3)c2n1 -5.25%
CCNc1ncc2nc(-c3cccs3)c(=O)n(C)c2n1 21.9%
CN1CCN(c2cc(-c3ccoc3)ncn2)CC1 1.96%
NC[C@@H](O)c1ccc(O)c(O)c1 -27.2%
CC1(C)C[C@@H]1C(=O)N/C(=C\CCCCSC[C@H](N)C(=O)O)C(=O)O
Cc1cc(Cn2cnc3c2C[C@@H](C(=O)O)N(C(=O)C(c2ccccc2)c2ccccc2)C3)ccc1N 1.43% [at 75.8 µM]
COc1ccc(C(=O)N2CCC3(CCCN(Cc4ccc(C#N)cc4)C3)CC2)cc1 4.6%
COc1ccc(C(=O)N2CCC3(CC2)CCN(c2ccccc2)CC3)cc1 15.5%
COC(=O)/C=C/c1ccccc1S(=O)(=O)NC(C)C 2.89%
CCCCCCC(=O)OC1CC(C)(C)NC(C)(C)C1 -0.668% [at 75.8 µM]
O=C(/C=C/c1ccc2c(c1)OCO2)c1cccs1 -5.28%
O=C1c2ccccc2CC[C@H]1CNCCc1ccc(O)cc1 -7.03%
Oc1cc2c(cc1O)CN(C(=S)NCCc1ccc(Cl)cc1)CCC2
COCCn1c(=O)cnc2cnc(Oc3ccccc3)nc21 21.3%
CCCCCC(=O)O[C@]1(C(C)=O)CC[C@H]2[C@@H]3CCC4=CC(=O)CC[C@]4(C)[C@H]3CC[C@@]21C 11%
Cc1oc(-c2ccccc2NC(=O)c2ccccc2)nc1CNC(=O)c1cccc(-n2cccn2)c1 -0.137%
c1cncc(-c2nc(N3CCNCC3)c3ccccc3n2)c1 1.78%
O=C(Nc1cccc(F)c1)N1CCC2(CC1)CCN(S(=O)(=O)c1ccccc1)CC2 1.81%
COC(=O)C[C@H]1c2cc(F)ccc2S(=O)(=O)N1c1ccccc1 14.4%
O=c1[nH]c2cc(C(F)(F)F)ccc2n1-c1cc(C(F)(F)F)ccc1O
O=C(c1ccncc1)N1CCC2(CCN(Cc3nccs3)CC2)CC1 -0.658%
COc1ccc(-n2c(=O)c(-c3ccccc3)nc3cnc(N4CCOCC4)nc32)cc1 24.2%
O=c1cc(-c2ccccc2)oc2cc(O)c(O)c(O)c12 -28.8%
COc1ccc(-c2oc3cc(OC)ccc3c(=O)c2O)cc1 2.27%
CC(NC(=O)c1ccco1)c1nnc2n1CCN(Cc1ccc(Cl)cc1)CC2 (stereo not given) 3.32%
COc1ccc2c(c1)-c1nc(-n3ncc(C(=O)N(C)CC4CCCN(C)C4)c3C)ncc1CC2 (stereo not given) 5.46%
CC(C)CCCC(C)N (stereo not given) 17.2%
CNC(C)C1CC[C@H](N)[C@@H](OC2C(N)C[C@H](N)[C@@H](OC3OC[C@](C)(O)C(NC)[C@H]3O)C2O)O1 (stereo not given in full) 34.4%
CC1CN(CC(=O)NCCC2COc3ccccc3O2)Cc2cc(Cl)ccc2O1 (stereo not given) -14.9%
CC(C)CCCC(C)C1CCC2C3C(=O)C=C4CC(O)CC[C@@]4(C)C3CC[C@@]12C (stereo not given in full) 6.98%
CS(=O)(=O)N1CCC[C@@]2(CCN(c3ccccn3)C2)C1 13.1%
N[C@@H](CCCC(=O)O)C(=O)O -0.537% [at 75.8 µM]
CN(C)CCn1nnnc1SCC1=C(C(=O)O)N2C(=O)[C@@H](NC(=O)Cc3csc(N)n3)[C@H]2SC1 31.1% [at 75.8 µM]
Cc1c(CCO)sc[n+]1CCc1ccccc1 19.3%
CN(C)c1ncc2nc(-c3ccc(F)cc3)c(=O)n(C3CC3)c2n1 18.2%
CC(C)CCCC(C)C1CCC2C3CC[C@H]4CC(=O)CC[C@@]4(C)C3CC[C@@]12C (stereo not given in full) 5.52%
C1=CC2C3C=CC(C3)C2C1 (stereo not given) 38.6% [at 320 µM]
Fc1ccc(/C=C/c2ccc3ccccc3n2)cc1 -21.8%
CCCCCCCCN1[C@@H](CC(=O)O)c2ccc(/C=C/C(=O)O)cc2S1(=O)=O -24.6%
COc1ccccc1C(=O)N(Cc1cc2cc3c(cc2nc1N(C)C)OCO3)CC1CCCO1 (stereo not given) -6.55%
CCOC(=O)C[C@H]1c2cc(F)ccc2S(=O)(=O)N1c1ccccc1 8.08%
O=c1cc(-c2ccccc2)[nH]c2nc(Cl)ccc12 -7.75% [at 75.8 µM]
O=c1[nH]c(=O)c2nc3ccccc3nc2[nH]1
N#Cc1cccc(NC(=O)N2CC[C@@]3(CCCN(C(=O)c4cc(C(F)(F)F)cc(C(F)(F)F)c4)C3)C2)c1 -15%
N#C/C(=C\c1ccc(O)c(O)c1)C(=O)NCCc1ccccc1 47.2% [at 75.8 µM]
CC(=O)O[C@H]1C[C@@]2(C)[C@@H](C[C@@H](O)[C@H]3[C@@]4(C)CC[C@@H](O)[C@@H](C)[C@@H]4CC[C@@]32C)/C1=C(\CCC=C(C)C)C(=O)O 6.92%
FC(F)(F)c1ccccc1-c1nc(NC2CC2)c2ccccc2n1 3.54%
CN(C)c1ncc2nc(CCc3ccccc3)c(=O)n(CCc3ccccc3)c2n1 6.79%
N#Cc1ccc(CN2CCCC3(CCN(C(=O)c4ccco4)CC3)C2)cc1 10.7%
COc1ccc(-c2nc3cc(C)ccc3cc2CN(C(=O)c2cccs2)C2CC2)cc1OC -12.6%
NCc1ccccc1Sc1ccccc1CO 14.7%
CS(=O)(=O)Nc1cccc(-c2nc(NCc3cccnc3)c3ccccc3n2)c1 11.9%
COc1ccc(C(=O)NCc2nc(-c3cccc(NC(=O)c4ccc(C)s4)c3)oc2C)cc1 0.361%
CC(=O)N[C@@H](CS)C(=O)O 0.615% [at 75.8 µM]
COCCNc1ncnc2ccc(-c3cccc(NS(C)(=O)=O)c3)cc12 8.47%
N[C@@H](Cc1cc(I)c(Oc2ccc(O)cc2)c(I)c1)C(=O)O -1.43%
O=C(O)CN(CC(=O)O)CC1=CC2C(=CC1=O)Oc1cc(O)c(CN(CC(=O)O)CC(=O)O)cc1C21OC(=O)c2ccccc21 (stereo not given) -140%
Nc1c(NC/C=C\COc2cc(CN3CCCCC3)ccn2)c(=O)c1=O 18.9%
CN1CCCC(CNC(=O)c2cnn(-c3nccc(-c4cccs4)n3)c2C2CC2)C1 (stereo not given) 11.3%
OC(c1cccnc1)c1ccc2c(c1)CN(Cc1cccc3c1OCO3)CCO2 (stereo not given) -11.6%
CCC1COCCS(=O)(=O)N1Cc1cccc(Cl)c1 (stereo not given) 1.01%
COc1ccc(CNc2ncncc2-c2ccoc2)c(OC)c1 -0.885%
O=C(c1ccco1)N1CCC2(CC1)CN(c1ncccn1)C2 9.76%
COc1cc(-c2cccc(OC)c2OC)cc2c1OCCN(Cc1cn[nH]c1-c1ccc(Cl)cc1)C2 -12%
COc1ccccc1-c1cncnc1NCCNC(C)=O -4.94%
O=C(Oc1ccccc1)N1CCC2(CCCN(c3ccccc3)C2)CC1 -4.1%
CN(Cc1ccco1)c1ccnc(-c2cccc(C#N)c2)n1 0.926%
